# According to PubChem BioAssay (Tox21):
# Values joined by “and” are separate entries in the source; they are usually repeats but may differ in a detail not shown here. Equal values may be shown once. The shares of active, inactive and inconclusive entries below differ from those in the screen. Potencies beside an inconclusive call are fits to weak or partial responses and may not hold up. Active and inactive are the calls of the source. Unless noted, the call rests on the fitted dose curve.
# Test system: not listed separately
# Test: qHTS assay to identify small molecule antagonists of the estrogen receptor beta (ER-beta) signaling pathway - cell viability counter screen (AID 1259382; active means well fitted curve in the direction sought with a large enough effect in the repeat runs; inconclusive means weak or mixed curves; inactive means no such curve, though single readings can be large; an effect the other way counts as inactive or inconclusive; further: nearly all actives have a fitted effect of over 55% in size;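 on activity change, negative = cytotoxicity: HEK293T cells carrying ER-beta-UAS-bla reporter stimulated with estradiol; on the % scale 0 is the no-effect control and ±100 the full control effect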)
# Details: ER-beta-UAS-bla HEK293T viability, CellTiter-Glo luminescence, 16 h; series mostly up to 92.4 µM; activity change, negative = cytotoxicity: at the top concentration
# In short: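 Cytotoxicity was measured in the same wells by CellTiter-Glo luminescence after 30 min at room temperature. Cells were ER-beta-bla HEK293T in charcoal-stripped serum, given compound together with 1 nM E2 and incubated 16 h at 37C.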
# Potency means the concentration at half of the fitted maximal effect; tags describe the fitted curve by direction and shape or compound fluorescence and quenching.
Compound,Potency,"activity change, negative = cytotoxicity"
N#CC(CCc1ccc(Cl)cc1)(Cn1cncn1)c1ccccc1 (configuration not stated),active: 48.6 µM,
CC(Cl)Cl,,inactive: -0.0775%
Nc1ccc(Cl)cc1C(=O)c1ccccc1,"inconclusive: 54.5 µM [cytotoxic, partial curve]",
Oc1c(Cl)cccc1Cl,,inactive: 6.43%
CC(C)(C)C(O)/C(=C\c1ccc(Cl)cc1Cl)n1cncn1 (configuration not stated),"inconclusive: 83 µM [cytotoxic, single point]",
CC(O)CCO (configuration not stated),"inconclusive: 68.6 µM [cytotoxic, single point]",

# Biological target: Thyrotropin receptor (Homo sapiens) (UniProt P16473)
# Sequence of UniProt P16473 (P16473 whole entry, looked up): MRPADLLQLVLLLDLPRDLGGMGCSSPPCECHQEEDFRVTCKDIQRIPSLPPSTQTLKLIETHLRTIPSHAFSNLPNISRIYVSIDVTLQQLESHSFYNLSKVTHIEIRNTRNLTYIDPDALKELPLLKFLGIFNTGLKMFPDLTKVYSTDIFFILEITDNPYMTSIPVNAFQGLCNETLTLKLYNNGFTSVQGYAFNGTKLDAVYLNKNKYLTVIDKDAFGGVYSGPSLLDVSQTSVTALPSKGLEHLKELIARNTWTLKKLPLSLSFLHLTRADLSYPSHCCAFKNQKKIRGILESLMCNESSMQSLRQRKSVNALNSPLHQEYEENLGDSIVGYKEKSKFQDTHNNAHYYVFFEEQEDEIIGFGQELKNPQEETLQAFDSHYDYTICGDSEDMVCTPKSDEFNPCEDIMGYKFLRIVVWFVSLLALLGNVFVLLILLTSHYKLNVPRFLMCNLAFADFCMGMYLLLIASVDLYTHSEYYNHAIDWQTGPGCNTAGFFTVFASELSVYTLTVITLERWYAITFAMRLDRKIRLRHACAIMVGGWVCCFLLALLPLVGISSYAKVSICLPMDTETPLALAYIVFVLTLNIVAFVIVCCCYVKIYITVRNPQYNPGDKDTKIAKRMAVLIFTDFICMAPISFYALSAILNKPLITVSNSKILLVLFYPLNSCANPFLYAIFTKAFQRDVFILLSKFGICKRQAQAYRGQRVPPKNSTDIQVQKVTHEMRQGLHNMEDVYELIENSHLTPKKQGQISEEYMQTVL
# Test: qHTS assay to identify small molecule antagonists of the thyroid stimulating hormone receptor (TSHR) signaling pathway (AID 1259385); further: nearly all actives have a fitted effect of over 20% in size; on activity change, negative = inhibition: on the % scale 0 is the no-effect control and ±100 the full control effect
# Details: TSHR-HEK293 cAMP HTRF, TSH-stimulated antagonist mode; activity change, negative = inhibition: at 92.4 µM (top of the series) unless noted
# In short: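 Antagonist mode: compound-treated TSHR-expressing HEK293 cells were stimulated with 1.5 ng/mL TSH (final) in presence of Ro20-1724 for 30 min at RT. HTRF cAMP detection after 1 h; each compound tested at 15 concentrations, triplicate.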
Compound,Potency,"activity change, negative = inhibition"
N#CC(CCc1ccc(Cl)cc1)(Cn1cncn1)c1ccccc1 (configuration not stated),"inconclusive: 68.6 µM [falling, single point]",
Nc1nc(N)nc(Cl)n1,,inactive: -0.674%
C[C@H]1[C@H](c2ccc(Cl)cc2)SC(=O)N1C(=O)NC1CCCCC1,inconclusive: 54.5 µM,
CNC(=O)NC(O)C(Cl)(Cl)Cl (configuration not stated),,inactive: -1.19% [at 42.5 µM]
CO/C=C(/C(=O)OC)c1ccccc1COc1cccc(C(F)(F)F)n1,"inconclusive: 54.4 µM [falling, partial curve]",
O=S(=O)(c1ccc(Cl)cc1)c1ccc(Cl)cc1,"inconclusive: 55.1 µM [falling, partial curve]",
CS/C(C)=N/OC(=O)N(C)SN(C)C(=O)O/N=C(\C)SC,inconclusive: 68.6 µM,
C=CCC1([C@H](C)CCC)C(=O)NC(=O)NC1=O,,inactive: 0.58%
CCCSP(=O)(OCC)SCCC,,inactive: -0.38%
COP(=S)(OC)Oc1cc(Cl)c(Br)cc1Cl,inconclusive: 68.6 µM,

# Test system: not listed separately
# Test: qHTS assay to identify small molecule agonists of the estrogen receptor alpha (ER-alpha) signaling pathway in the presence of an antagonist - cell viability counter screen (AID 1259386; active means well fitted curve in the direction sought with a large enough effect in the repeat runs; inconclusive means weak or mixed curves; inactive means no such curve, though single readings can be large; an effect the other way counts as inactive or inconclusive; further: nearly all actives have a fitted effect of over 30% in size)
# Details: VM7Luc4E2 viability, CellTiter-Fluor fluorescence, 22 h; series mostly up to 92.4 µM; activity change, negative = cytotoxicity: at the top concentration
# In short: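 Compounds tested at 15 concentrations for 22 h at 37C alongside 10.0nM (final) ICI-182,780 antagonist, in VM7Luc4E2 cells grown in phenol red-free, charcoal-stripped medium. Viability read by CellTiter-Fluor fluorescence after 1 h reagent incubation.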
row,Compound,Potency
1,C[C@H]1[C@H](c2ccc(Cl)cc2)SC(=O)N1C(=O)NC1CCCCC1,inconclusive: 68.6 µM [cytotoxic]
2,CCCCCON=O,"inconclusive: 2.74 µM [cytotoxic, single point]"
3,Nc1ccc(Cl)cc1C(=O)c1ccccc1,"inconclusive: 30.6 µM [cytotoxic, partial curve]"
4,CC(C)(C)C(O)/C(=C\c1ccc(Cl)cc1Cl)n1cncn1 (configuration not stated),"inconclusive: 83 µM [cytotoxic, single point]"

# Biological target: Progesterone receptor (Homo sapiens) (UniProt P06401)
# Sequence of UniProt P06401 (P06401 whole entry, looked up): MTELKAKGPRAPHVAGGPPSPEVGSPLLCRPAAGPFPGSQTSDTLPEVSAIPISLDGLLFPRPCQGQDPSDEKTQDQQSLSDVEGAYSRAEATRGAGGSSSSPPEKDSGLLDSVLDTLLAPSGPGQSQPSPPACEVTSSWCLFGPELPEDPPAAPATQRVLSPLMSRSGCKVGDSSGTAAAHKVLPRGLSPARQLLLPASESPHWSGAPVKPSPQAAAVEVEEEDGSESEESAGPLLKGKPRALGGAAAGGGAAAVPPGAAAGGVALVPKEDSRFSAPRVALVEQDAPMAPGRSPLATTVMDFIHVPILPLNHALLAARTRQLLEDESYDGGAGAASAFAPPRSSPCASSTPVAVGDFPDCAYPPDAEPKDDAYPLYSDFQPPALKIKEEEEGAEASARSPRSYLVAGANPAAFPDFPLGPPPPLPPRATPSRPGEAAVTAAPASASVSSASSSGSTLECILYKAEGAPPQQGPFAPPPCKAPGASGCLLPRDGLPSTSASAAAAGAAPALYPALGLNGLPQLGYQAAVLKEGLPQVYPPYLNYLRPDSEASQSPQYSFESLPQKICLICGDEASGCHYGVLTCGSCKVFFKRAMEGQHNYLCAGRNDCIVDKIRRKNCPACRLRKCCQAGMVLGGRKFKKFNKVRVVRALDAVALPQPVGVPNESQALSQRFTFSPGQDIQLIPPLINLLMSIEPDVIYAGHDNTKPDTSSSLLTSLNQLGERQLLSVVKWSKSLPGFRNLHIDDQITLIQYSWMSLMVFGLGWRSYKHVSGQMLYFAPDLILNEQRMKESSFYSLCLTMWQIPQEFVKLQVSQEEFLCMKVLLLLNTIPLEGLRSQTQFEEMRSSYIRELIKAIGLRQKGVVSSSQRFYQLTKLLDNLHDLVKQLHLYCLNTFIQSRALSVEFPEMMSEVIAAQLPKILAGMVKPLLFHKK
# Test: qHTS assay to identify small molecule agonists of the progesterone receptor (PR) signaling pathway (AID 1346784); further: nearly all actives have a fitted effect of over 30% in size; on activation: on the % scale 0 is the no-effect control and ±100 the full control effect
# Details: PR-UAS-bla HEK293T, beta-lactamase FRET ratio, 16 h; activation: at 92.4 µM (top of the series) unless noted
# In short: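 PR-UAS-bla HEK 293T cells (beta-lactamase reporter under UAS) in 2% charcoal-stripped FBS, dosed with 23 nL compound after 6 hr, incubated 16hr at 37C. LiveBLAzer B/G FRET substrate added, fluorescence read after 2 hours.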
Compound,activation,Potency
N#CC(CCc1ccc(Cl)cc1)(Cn1cncn1)c1ccccc1 (configuration not stated),inconclusive: -14.9%,
O=C(O)C(Br)CBr (configuration not stated),,active: 5.54 µM
CNC(=O)NC(O)C(Cl)(Cl)Cl (configuration not stated),inactive: -0.776% [at 42.5 µM],
COc1cc(OC)nc(NC(=O)NS(=O)(=O)c2ncccc2OCC(F)(F)F)n1,inactive: 0.192%,
O=S(=O)(c1ccc(Cl)cc1)c1ccc(Cl)cc1,,inconclusive: 27.6 µM [cytotoxic]
O=C(CBr)c1ccc(O)cc1,inconclusive: 15.8%,
O=C(CBr)OCc1ccccc1,inactive: 2.69%,
C#C[C@]1(O)C=C[C@H]2[C@@H]3CCC4=CC(=O)CC[C@@H]4[C@H]3CC[C@@]21CC,inconclusive: 76.4% [at 42.5 µM],
CC(C)(C)C(O)/C(=C\c1ccc(Cl)cc1Cl)n1cncn1 (configuration not stated),,"inconclusive: 20.8 µM [cytotoxic, partial curve, poor fit]"
C[C@]12CC[C@H]3[C@@H](CC[C@@]45O[C@@H]4C(O)=C(C#N)C[C@]35C)[C@@H]1CC[C@@H]2O,,"inconclusive: 11.9 µM [rising, partial curve, poor fit]"
Cc1ccc(N)c(C)c1,,inactive

# Biological target: Progesterone receptor (Homo sapiens) (UniProt P06401)
# Test: qHTS assay to identify small molecule antagonists of the progesterone receptor (PR) signaling pathway (AID 1346795; active means well fitted inhibition curve with a large enough effect in the signal ratio in the repeat runs, not every such curve was filed as active; inconclusive means weak or mixed curves; the % refers to the signal ratio; on activity change, negative = inhibition: on the % scale 0 is the no-effect control and ±100 the full control effect)
# Details: PR-UAS-bla HEK293T, beta-lactamase FRET ratio, 16 h; activity change, negative = inhibition: at 92.4 µM (top of the series) unless noted
# In short: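 PR-UAS-bla HEK293T cells with beta-lactamase reporter under UAS control, in 2% charcoal-stripped FBS, treated with compounds plus 1 nM promegestone (R5020, final) for 16 hr at 37C. Read-out: FRET beta-lactamase substrate fluorescence after 2 hr at room temperature.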
Compound,Potency,"activity change, negative = inhibition"
N#CC(CCc1ccc(Cl)cc1)(Cn1cncn1)c1ccccc1 (configuration not stated),"inconclusive: 2.73 µM [rising, partial curve, poor fit]",
C[C@H]1[C@H](c2ccc(Cl)cc2)SC(=O)N1C(=O)NC1CCCCC1,active: 13.7 µM,
CCCCCON=O,,inactive: 1.28%
CNC(=O)NC(O)C(Cl)(Cl)Cl (configuration not stated),,inactive: 14% [at 42.5 µM]
OCCCBr,,inconclusive: -0.135%
Cc1cc(O)ccc1Cl,"inconclusive: 3.35 µM [falling, single point]",inconclusive: -27.9%
Nc1ccc(Cl)cc1C(=O)c1ccccc1,active: 17.2 µM,
OC(c1ccc(F)cc1)(c1cncnc1)c1ccccc1Cl (configuration not stated),active: 48.6 µM,
CCCCC(CC)COP(=O)(Oc1ccccc1)Oc1ccccc1 (configuration not stated),"inconclusive: 34.4 µM [rising, partial curve]",
CO/C=C(/C(=O)OC)c1ccccc1COc1cccc(C(F)(F)F)n1,"inconclusive: 68.5 µM [rising, partial curve, poor fit]",
O=C1C(=O)c2cccc3cccc1c23,inconclusive: 27.3 µM,
CC(C)N(C(=O)COc1nnc(C(F)(F)F)s1)c1ccc(F)cc1,inconclusive: 68.6 µM,
O=S(=O)(c1ccc(Cl)cc1)c1ccc(Cl)cc1,inconclusive: 11.7 µM,
O=C(CBr)c1ccc(O)cc1,,inconclusive: -25.1%
CCC(C)(CC)c1cc(NC(=O)c2c(OC)cccc2OC)on1,"inconclusive: 54.6 µM [falling, partial curve]",inconclusive: -44.9%
CCCSP(=O)(OCC)SCCC,,inconclusive: -10.7%
CC(C)(C)C(O)/C(=C\c1ccc(Cl)cc1Cl)n1cncn1 (configuration not stated),"inconclusive: 83 µM [rising, partial curve, poor fit]",
C[C@]12CC[C@H]3[C@@H](CC[C@@]45O[C@@H]4C(O)=C(C#N)C[C@]35C)[C@@H]1CC[C@@H]2O,inconclusive: 27.3 µM [partial curve] and inconclusive: 13.3 µM [partial curve],
COP(=S)(OC)Oc1cc(Cl)c(Br)cc1Cl,"inconclusive: 30.6 µM [falling, full curve]",
